“And” between values parts separate entries of the source, which are not always exact repeats. Equal entries are not always repeated. Screen size: about 420,000 compounds; about 50,000 (12%) were called active. This list was built around the results that the source calls inconclusive (neither active nor inactive); the mix of calls is not that of the screen. Calls follow the shape of the dose curve; as a rule, active = well fitted inhibition curve with a large enough effect; inconclusive = small, poorly fitted or top-dose-only effect; inactive = flat fitted curve, though single readings scatter. Potencies of inconclusive entries are left out as doubtful fits.
Assay: qHTS for Inhibitors of human tyrosyl-DNA phosphodiesterase 1 (TDP1): qHTS in cells in presence of CPT; also: nearly all actives have a fitted effect of over 55% in size
Conditions: chicken DT40 Tdp1-/-;hTDP1 cells + 20 nM CPT, ATP luminescence, 48 h; activity change, negative = growth inhibition: at 46.2 µM (top of the series) unless noted
In short: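 Cell growth measured by CellTiter-Glo luminescence after a minimum 48 h, 37 C compound exposure with 20 nM CPT in Tdp1-knockout DT40 cells stably expressing hTDP1, seeded 400/well; qHTS titration format.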
% is scaled to controls: 0 for no effect and ±100 for the full control effect; potency is read from the fitted curve at half-maximal effect; tags tell the direction and shape of the fitted curve.

Structure (SMILES)	Potency	activity change, negative = growth inhibition
CC1(C)CC(=O)C(N=Nc2ccc(C(F)(F)F)cc2[N+](=O)[O-])=C(O)C1	active: 29.1 µM	
Cc1ccc(S(=O)(=O)N2CCN(C(=O)c3cc4c(s3)CCCC4)CC2)c(C)c1	inconclusive [inhibitor, single point]	
O=C(C[n+]1cc2ccccc2c2ccccc21)c1ccccc1	inconclusive [inhibitor, single point]	
N#Cc1nccnc1S(=O)(=O)c1cccs1	active: 0.651 µM	
CCCCCCCCn1cnc2c(N)c(C)c(C)cc21	inconclusive [inhibitor, single point]	
COc1ccc(NC(=O)NC23CC4(C)CC(C)(CC(C)(C4)C2)C3)cc1OC	inconclusive [inhibitor, single point]	
CCCN(CCC)CCNC(=O)c1cc2c(=O)n(C)c3ccccc3c2n1C	inconclusive [inhibitor, single point]	
O=C(O)/C=C/C(=O)Nc1ccc(OC(F)F)cc1	inactive	
C=CCNC(=S)N(Cc1ccccc1)Cc1ccc(F)cc1	inconclusive [inhibitor, partial curve]	
CCOc1cc(C(=O)NC)cc(Br)c1OC	inactive	
COc1ccc(N2CCN(C(=O)c3sc4nc5n(c(=O)c4c3C)CCC5)CC2)cc1	inconclusive [inhibitor, single point]	
Cc1ccc(-c2nc(CS(=O)CC(=O)NC3CCCCC3)c(C)o2)cc1 (configuration not stated)	inconclusive [inhibitor, single point]	
CCOC(=O)N1CCN(C(=O)CN(C)S(=O)(=O)c2ccc(Cl)cc2)CC1	inactive	
O=C(Cn1c(=O)n(Cc2ccco2)c(=O)c2ccccc21)Nc1cccc(Cl)c1	inconclusive [inhibitor, single point]	
CCc1nn(CC(=O)NCc2ccc(OC)c(OC)c2)c(=O)c2cc3sc(C)cc3n12	inconclusive [inhibitor, single point]	
Cc1cc(C)n(CCC(=O)N/N=C/c2ccccc2O)n1	active: 11.6 µM	
CC1(C)CC(NCc2ccccc2)=CC(=S)N1	inconclusive [inhibitor, single point]	
COc1cc(O)c2c(=O)cc(-c3ccc(OC)c(-c4c(O)cc(O)c5c(=O)cc(-c6ccc(O)cc6)oc45)c3)oc2c1	inconclusive [inhibitor, single point]	
CCCN1C(=O)/C(=C/c2ccc(C)o2)SC1=Nc1ccc(OCC)cc1	inconclusive [inhibitor, single point]	
Cc1c(C(=O)N/N=C/c2ccoc2)cccc1[N+](=O)[O-]	inactive	
O=C(CCCCCNC(=O)N1CCn2c1nc1ccccc12)NCc1ccc(Cl)cc1	inconclusive [inhibitor, single point]	
CC(C)Cn1c(N)c(C(=O)CCl)c(=O)n(C)c1=O	inconclusive [inhibitor, single point]	
O=C1CN(c2ccccc2F)C(=O)CN1c1ccccc1F	inactive	
O=C(/C=C/c1ccc([N+](=O)[O-])cc1)N1CCN(S(=O)(=O)c2ccccc2)CC1	inconclusive [inhibitor, single point]	

Structure (SMILES)	Potency	activity change, negative = growth inhibition
CCCCNC(=O)/C(C#N)=C/c1ccc(-c2ccc(S(=O)(=O)N3CCOCC3)cc2)o1	active: 7.31 µM	
C=CCN=c1scc(-c2ccccc2)n1/N=C/c1ccccn1	active: 7.31 µM and active: 1.84 µM	
COc1cc(-c2cc(C(=O)Nc3cc(S(=O)(=O)N4CCOCC4)ccc3C)c3ccccc3n2)cc(OC)c1OC	active: 16.4 µM	
Cc1cc(C(=O)Nc2cccc(F)c2)c2c(C)nn(-c3cccc(Cl)c3C)c2n1	inconclusive [inhibitor, single point]	
CCC(C)NC(=O)c1ccc(CS(=O)(=O)Cc2ccc(Cl)cc2)o1 (configuration not stated)	inactive	
Cc1cc(C(=O)COC(=O)C2CCN(C(=O)c3ccc(Cl)cc3)CC2)c(C)n1CC1CCCO1 (configuration not stated)	inconclusive [inhibitor, single point]	
COc1ccccc1OCCCCn1c(-c2ccc(Cl)cc2)nc2ccccc2c1=O	inactive	
COc1cc(C(=S)N2CCN(c3cccc(Cl)c3)CC2)ccc1O	active: 10.3 µM	
O[C@@H]1COC(Nc2ccc(N=Nc3ccccc3)cc2)C[C@@H]1O (some centres not stated)	inactive	
CC1=NC(=O)C(N=Nc2cccc(O)c2)N1c1ccccc1 (configuration not stated)	inconclusive [inhibitor, single point]	
Oc1cc(-c2nc3ccccc3s2)cc2c1OCCN(Cc1cccn1-c1ccc(Cl)cn1)C2	inconclusive [inhibitor, single point]	
CCN(CC)C(=O)c1cn(CCC#N)nc1-c1ccc2ccccc2c1	inactive	
Cn1c(-[n+]2c(-c3ccccc3)cc(-c3ccccc3)cc2-c2ccccc2)nc2c([N+](=O)[O-])cccc21	active: 9.2 µM	
CCCCSc1nc(SCC(=O)NCc2ccco2)c2c3c(sc2n1)COC(C)(CC)C3 (configuration not stated)	inactive	
Cc1cc2cc(CCNC(=O)c3ccc(S(=O)(=O)N4CCOCC4)cc3)c(=O)[nH]c2cc1C	active: 16.4 µM	
Cc1cc(O)c(-c2cc(C(=O)Nc3ccc(S(=O)(=O)N4CCOCC4)cc3)[nH]n2)cc1C	inconclusive [inhibitor, single point]	
CCn1c(CCNC(=O)c2ccc(Cl)c(Cl)c2)nnc1SCCOc1ccc(OC)cc1	inconclusive [inhibitor, single point]	
CCN(CC)S(=O)(=O)c1ccc(NC(=S)NC(=O)CC(C)C)cc1	inconclusive [inhibitor, single point]	
NC(=O)CSc1nc2scc(-c3ccc(Cl)cc3)c2c(=O)n1Cc1ccccc1	active: 9.2 µM	
CC(C)Cn1c(=O)c(C(=O)NCc2ccc3c(c2)OCO3)c(O)c2ccccc21	active: 23.1 µM	
CN(C)c1ccc(C(=O)Nc2cccc(-c3nc4cccnc4s3)c2)cc1	active: 5.8 µM	
N/C(=N\O)c1ccc([N+](=O)[O-])s1	inconclusive [inhibitor, single point]	
CSc1ccc(CCNC(=O)c2ccc(CS(=O)Cc3ccccc3Cl)o2)cc1 (configuration not stated)	inconclusive [inhibitor, single point]	
CC(C)Oc1ccc(C(CC(=O)O)NC(=O)C(Sc2ccccc2)c2ccccc2)cc1 (configuration not stated)	inactive	

Structure (SMILES)	Potency	activity change, negative = growth inhibition
CCS(=O)(=O)N1CCN(Cc2c[nH]c3ccccc23)CC1	inconclusive [inhibitor, single point]	
CCCCC(O)(CCCC)C(=O)NN(C(=O)CCl)c1ccccc1	active: 14.6 µM	
COC(=O)c1ccccc1NC(=O)C1(S(=O)(=O)c2ccc(Cl)cc2)CC1	inconclusive [inhibitor, partial curve, poor fit]	
CCn1c(=NC(=O)CS(=O)(=O)c2ccccc2)sc2cccc(OC)c21	inconclusive [inhibitor, single point]	
CCCC(C)C(=O)N(Cc1ccccc1)c1ccccn1 (configuration not stated)	inconclusive [inhibitor, full curve]	
COc1ccc(CCNC(=O)c2nc(SCc3ccc(C)cc3)ncc2Cl)cc1OC	active: 11.6 µM	
CCOC(=O)N1CCC(=C2c3ccc(Cl)cc3CCc3cccnc32)CC1	active: 15 µM and active: 2.66 µM and active: 20.6 µM	
CCCNC(=O)C[C@H]1C[C@H]2c3cc(NC(=O)Nc4ccc(F)cc4)ccc3O[C@H]2[C@@H](CO)O1	active: 1.84 µM	
O=C(Nc1ccc(C(F)(F)F)cc1)C1CCN(c2cnccn2)CC1	inconclusive [inhibitor, single point]	
O=C(Cc1cn2ccsc2n1)Nc1nc2c(s1)CCCC2	inactive	
O=C(CCc1ccccc1)NC1CCCc2ccccc21 (configuration not stated)	inconclusive [inhibitor, single point]	
O=C(Nc1cccc2ncccc12)c1ccc(-c2ccc(Br)cc2)o1	active: 18.4 µM	
O=C(NCC1CC1)c1ccc2c(c1)S(=O)(=O)c1cc(Cl)ccc1C2=O	inconclusive [inhibitor, single point]	
CC(=O)N1CCc2cc(S(=O)(=O)CCC(=O)Nc3ccc(Cl)cc3F)ccc21	inactive	
CCCC/C(C)=N/NC(=O)c1cn(-c2ccccc2)nc1-c1ccccc1	inconclusive [inhibitor, partial curve]	
CCc1ccc(CN(C)C(=O)c2ccc3c(=O)n4c(nc3c2)CCC4)cc1	inactive	
CCc1ccc(OC)c(S(=O)(=O)Nc2ccc(Cc3ccncc3)cc2)c1	active: 7.31 µM	
Cc1cc(OC(C)C)nc(NCc2ccccc2)n1	inconclusive [inhibitor, single point]	
COc1ccc(-c2csc(Nc3ccc(C)cn3)n2)cc1OC	inconclusive [inhibitor, single point]	
O=C(Cc1ccc(Br)cc1)Nc1nc2ccccc2[nH]1	active: 6.51 µM	
COc1ccccc1/C=C/C(=O)OCC(=O)N1CCc2ccccc21	inactive	
CCCCCOC(=O)C1=C(C)Nc2nnnn2C1c1ccc(OC)c(OC)c1OC (configuration not stated)	inconclusive [inhibitor, partial curve]	
Cc1ccc(S(=O)(=O)N2CCOCC2)cc1C(=O)Nc1ccc(S(=O)(=O)Nc2nccs2)cc1	inactive	
Cc1ccc(C(=O)Nc2ccccc2C(=O)NCc2ccco2)cc1		inconclusive: -30.2% [inhibitor]

From PubChem BioAssay AID686979 (National Center for Advancing Translational Sciences (NCATS), 2013)
